Reference: the supplement of paper PMC3334620
In all, about 33,000 sequences were measured (“E-score (-0.5 to 0.5)”: median about -0.012, highest 2% from about 0.29 on). The list shows a part of the results.

molecular target: T1, Ybr033w (UniProt P38073); test: PBM E-score (8-mer binding enrichment) (E-score (-0.5 to 0.5)); higher = stronger / more preferred TF binding; most listed sequences are background and not binding sites; details: protein concentration: 200 nM; construct: GST-full length
T1 sequence: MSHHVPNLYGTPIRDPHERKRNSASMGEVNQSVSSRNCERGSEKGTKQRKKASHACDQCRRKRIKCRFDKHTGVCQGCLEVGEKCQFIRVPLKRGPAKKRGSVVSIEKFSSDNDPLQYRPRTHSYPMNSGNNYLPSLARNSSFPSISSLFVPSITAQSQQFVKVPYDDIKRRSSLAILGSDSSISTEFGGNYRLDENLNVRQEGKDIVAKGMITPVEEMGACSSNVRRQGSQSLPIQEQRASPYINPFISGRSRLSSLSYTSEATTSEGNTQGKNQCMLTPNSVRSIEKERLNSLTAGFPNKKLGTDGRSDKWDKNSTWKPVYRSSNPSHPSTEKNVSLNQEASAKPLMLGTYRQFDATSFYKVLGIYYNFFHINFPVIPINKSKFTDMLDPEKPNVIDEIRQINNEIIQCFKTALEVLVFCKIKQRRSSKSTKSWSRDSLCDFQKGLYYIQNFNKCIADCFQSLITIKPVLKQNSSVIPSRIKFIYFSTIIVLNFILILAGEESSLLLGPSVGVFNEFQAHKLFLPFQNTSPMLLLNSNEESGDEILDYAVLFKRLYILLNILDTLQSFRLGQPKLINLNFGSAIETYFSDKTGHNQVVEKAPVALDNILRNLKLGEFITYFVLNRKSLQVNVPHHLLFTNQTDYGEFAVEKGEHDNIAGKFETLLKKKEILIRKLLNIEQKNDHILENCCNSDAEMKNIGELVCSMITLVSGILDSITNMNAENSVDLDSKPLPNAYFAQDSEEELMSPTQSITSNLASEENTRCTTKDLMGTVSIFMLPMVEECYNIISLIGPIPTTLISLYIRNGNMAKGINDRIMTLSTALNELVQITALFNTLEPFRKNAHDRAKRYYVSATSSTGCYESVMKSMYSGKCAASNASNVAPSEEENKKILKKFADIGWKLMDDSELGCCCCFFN
Procedure: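 Universal 'all 10-mer' protein binding microarrays (Agilent AMADID 015681) probed with GST-tagged S. cerevisiae TFs (full-length or DBD) made by in vitro transcription/translation (PURExpress), about 100-200 nM. Bound TF was detected with fluorescent anti-GST. Each ungapped 8-mer (which stands for itself and its reverse complement) is scored by the PBM enrichment score (E-score), a modified Wilcoxon-Mann-Whitney statistic from -0.5 to +0.5, computed with the Universal PBM Analysis Suite. Scale: above 0.35 generally sequence-specific binding.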

| Sequence | PBM E-score |
| --- | --- |
| ACACGGGT | -0.122 |
| ATTCAGTA | 0.13 |
| GAGTACAA | 0.162 |
| ATAGTGAA | 0.129 |
| CGGACAAC | -0.0529 |
| CCCGAGCA | -0.296 |
| CCAAGTGC | -0.0762 |
| GACCCGGA | -0.212 |
| CATACCCG | -0.165 |
| GACATGGC | -0.267 |
| ACACGCCC | -0.203 |
| GGAATCAA | 0.145 |
| ACGCCAAC | -0.0861 |
| ACCTTGCC | -0.208 |
| TGCTGGAA | 0.115 |
| GGCCGAGA | 0.0662 |
| GTTACTGA | 0.103 |
| CAACACAG | -0.0762 |
| GGCGTTGA | -0.139 |
| AACGCGTA | 0.0134 |
| AGAACACG | 0.142 |
| GGCACTAC | -0.252 |

| Sequence | PBM E-score |
| --- | --- |
| CGATTTAG | 0.263 |
| GTTCGTTA | 0.234 |
| GCGCTAAA | -0.00863 |
| AAGTCGGT | 0.117 |
| CGGTTGAG | 0.108 |
| GGTACTGA | -0.167 |
| ATGTGCGG | -0.125 |
| ACTATTCC | 0.228 |
| GAGTCGCC | -0.207 |
| CGAGTAAA | 0.196 |
| GGGTAACC | -0.117 |
| AAATATTC | 0.37 |
| CCCTTGGC | -0.27 |
| GTCTGGGA | -0.18 |
| AAATAGAA | 0.193 |
| GATATTAC | 0.31 |
| AGCGGTGC | -0.179 |
| CGCGTTTC | -0.179 |
| CTAGGCTA | -0.164 |
| AGCGGCAC | -0.17 |
| AATCGTAT | 0.203 |
| CATGCAGA | -0.12 |

| Sequence | PBM E-score |
| --- | --- |
| AGGTGTAG | -0.144 |
| AACCACTC | 0.0186 |
| AGTAACCA | 0.0148 |
| AAGCATCT | 0.00442 |
| CGAGCGAC | -0.0906 |
| CCCTATCA | -0.0263 |
| ACCTATGA | -0.0827 |
| ACAATTGT | 0.223 |
| AGAGCTAT | -0.174 |
| ACCGGAAG | 0.222 |
| GTCTACAC | 0.0244 |
| CCTACTGC | -0.0675 |
| CATCCCTA | -0.0662 |
| AACTAACA | 0.118 |
| GTCAGTAA | -0.00383 |
| AATATCCG | 0.284 |
| ACGAGAAT | 0.0681 |
| CAGTATTA | 0.168 |
| CTATCCCC | -0.291 |
| CGCACTAG | 0.0213 |
| AATTGACC | 0.0241 |
| AGGTTCCC | -0.29 |

| Sequence | PBM E-score |
| --- | --- |
| CAGGACGA | -0.132 |
| CGCTCTAG | -0.296 |
| AAACTGCA | 0.146 |
| CAACCTAC | 0.0113 |
| AAGTAGGG | 0.144 |
| AGGGCCGG | -0.208 |
| AACTGGGC | -0.144 |
| AACTTTTC | 0.274 |
| GGGACGCA | -0.233 |
| AACATCCC | 0.0746 |
| CCCGTGGC | -0.39 |
| AATCCAAA | 0.201 |
| GCCACCTA | -0.167 |
| CATGGGCA | -0.108 |
| GTGCAGCA | -0.0842 |
| AATTCACG | -0.0727 |
| GCTGTTCA | 0.0549 |
| GAATACAC | 0.00479 |
| ACAGAATA | 0.224 |
| TAGGACAA | 0.105 |
